Measured values reported in PubChem BioAssay AID485294 (National Center for Advancing Translational Sciences (NCATS), 2010).
Where “and” joins values, the source holds several entries; their conditions need not be identical. Equal entries are not always repeated. Among all 370,000 compounds or so, about 150 (0.041%) were called active. Inconclusive results, whose numbers are uncertain, are shown with a selection of clear calls. Calls come from the whole dose curve; as a rule, active = well fitted inhibition curve with a large enough effect; inconclusive = small, poorly fitted or top-dose-only effect; inactive = flat fitted curve, though single readings scatter. A potency beside an inconclusive call is a rough fit, not a confirmed value.

target: Beta-lactamase (Escherichia coli (strain K12)) (UniProt P00811); assay: qHTS Inhibitors of AmpC Beta-Lactamase (assay with detergent); conditions: AmpC hydrolysis of nitrocefin, absorbance 480 nm, 0.01% Triton; activity change, negative = inhibition: at 114 µM (top of the series); note: nearly all actives have a fitted effect of over 25% in size;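 for activity change, negative = inhibition: 0% = no-compound wells and -100% = no-enzyme wells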
UniProt P00811, sequence (P00811 whole entry, looked up): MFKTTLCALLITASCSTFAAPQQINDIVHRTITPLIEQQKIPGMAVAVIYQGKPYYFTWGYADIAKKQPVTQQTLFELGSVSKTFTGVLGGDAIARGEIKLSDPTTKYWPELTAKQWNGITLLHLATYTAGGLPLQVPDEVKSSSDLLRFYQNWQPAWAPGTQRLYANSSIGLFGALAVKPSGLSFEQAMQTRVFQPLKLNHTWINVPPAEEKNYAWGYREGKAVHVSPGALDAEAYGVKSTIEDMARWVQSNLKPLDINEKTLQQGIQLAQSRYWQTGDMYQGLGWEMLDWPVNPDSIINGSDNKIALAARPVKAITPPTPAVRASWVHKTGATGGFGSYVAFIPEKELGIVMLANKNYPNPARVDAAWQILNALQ
Experimental: NIH Molecular Libraries Probe Production Network [MLPCN] NIH Chemical Genomics Center [NCGC] Assay Provider: Professor Brian Shoichet, UCSF Assay Overview: This aggregation profiling approach exploits the sensitivity of aggregate formation to detergent. Inhibition of b-lactamase is measured in the presence and absence of 0.01% Triton X-100. This particular assay had the prescence of 0.01% Triton X-100. See Pubchem assay "Promiscuous and Specific Inhibitors of AmpC Beta-Lactamase (assay without detergent)" for related screen. Compounds that inhibit only in the absence of detergent are considered likely promiscuous aggregators. A screen of 1,030 compounds was performed in Brian Shoichet's lab in 96-well format. AmpC activity was measured by following the absorbance at 480 nm. Nitrocefin is a chromogenic substrate: while nitrocefin is yellow (lmax 390 nm), the product of its hydrolysis is red (lmax 486 nm, 17,000 M-1). AmpC beta lactamase was provided by Shoichet Lab, UCSF.
Buffer: 20 mM phosphate buffer, pH 7.0 Triton X-100: No Detergent screen: 0.0001%, Detergent screen: 0.01%. Reagents/Controls: Buffer in columns 3 and 4 as negative control (no enzyme). 5.3 nM AmpC in columns 1, 2, 5-48. Titration of UCSF compound 9 control (from 10 mM, then 1:2) pin-transferred to column 2. Column 1 is neutral (100% activity). Assay Steps: Six uL of reagents were dispensed to 1536-well Greiner black clear bottom plates. Compounds and controls (23 nL) were transferred via Kalypsys PinTool. The plates were incubated for 15 min at room temperature, and then 2 uL of 800 uM solution of nitrocefin was added to start the reaction. The plates were immediately transferred to and read every 20 seconds for 4 min on ViewLux (Perkin-Elmer) High-throughput CCD imager using 480 nm absorbance protocol. During dispense, reagent bottles were kept submerged into 4 deg C water bath. Keywords: NIH Roadmap, MLSCN, MLI, MLSMR, qHTS, NCGC, AmpC Beta-Lactamase, Aggregation
Potency is the fitted concentration of half-maximal effect; tags give direction and shape of the fitted curve.

Row | SMILES | activity change, negative = inhibition | Potency
1 | COc1ccc(CNC(=O)C(=O)NCC(c2ccco2)S(=O)(=O)c2ccc(Cl)cc2)cc1 (stereo not drawn) | inactive: -1.18% | –
2 | CC(=O)Nc1ccc(OCC(O)Cn2c3ccccc3c3ccccc32)c(C)c1 (stereo not drawn) | – | inconclusive: 0.562 µM [inhibitor, full curve, poor fit]
3 | COc1ccc(N2CCN(C(=O)CN(C)S(=O)(=O)c3cnc[nH]3)CC2)cc1 | – | inconclusive: 0.316 µM [inhibitor, full curve, poor fit]
4 | O=C(C1CC1)N(CCN(Cc1ccccc1)C(=O)C1CC1)Cc1ccccc1 | – | inconclusive: 1.26 µM [inhibitor, full curve, poor fit]
5 | FC(F)(F)c1nnc2sc(-c3cccs3)nn12 | – | inconclusive: 3.98 µM [inhibitor, full curve, poor fit]
6 | O=S(=O)(c1ccc(F)cc1)n1ccc(-c2cccc(OCc3ccc(Cl)cc3Cl)c2)n1 | inactive: -1.95% | –
7 | CCN1C(=NCc2ccc(OC)cc2)N[C@@H](c2ccccc2)C(C(=O)OC)=C1C | – | inconclusive: 2.24 µM [inhibitor, full curve, poor fit] and inconclusive: 11.2 µM [inhibitor, partial curve]
8 | CSc1nc2c(cc1C#N)CCCCC2 | – | inconclusive: 44.7 µM [inhibitor, single point]
9 | COc1cc(C(=O)OCC(=O)Nc2nnc(-c3ccccc3)o2)cc(OC)c1OC | inactive: -2.41% | –
10 | CC(C(=O)Nc1ccc(F)cc1Cl)N(C)CCOc1ccccc1 (stereo not drawn) | inactive: 1.41% | –
11 | CNc1ccc(C(=O)N2CCN(S(=O)(=O)c3ccc4c(c3)OCCCO4)CC2)cc1[N+](=O)[O-] | – | inconclusive: 0.631 µM [inhibitor, full curve]
12 | C/C(Cl)=C/CC1(CN2CCCC2=O)C(=O)NC(=O)NC1=O | – | active: 28.2 µM
13 | COCCOC(=O)c1c(C)oc2ccc(NS(=O)(=O)c3ccc(C(=O)O)cc3)cc12 | – | inconclusive: 0.891 µM [inhibitor, full curve, poor fit]
14 | CC(C)c1ccccc1NC(=O)C1CCCN(C(=O)c2ccc(Cl)cc2)C1 (stereo not drawn) | – | inconclusive: 1.78 µM [inhibitor, full curve]
15 | CCc1ccc(NC(=O)CC(NCc2cccnc2)C(=O)O)cc1 (stereo not drawn) | inactive: 0.724% | –
16 | Cc1ccc(C)c(S(=O)(=O)N2CCN(C(=O)CN3C(=O)C4CC=CCC4C3=O)CC2)c1 (stereo not drawn) | – | inconclusive: 44.7 µM [inhibitor, partial curve, poor fit]
17 | CN(C)C=Nc1ncc2c3ccccc3n(CCN(C)C)c2c1C#N | – | inconclusive: 1.41 µM [inhibitor, full curve]
18 | COc1ccsc1C(=O)Nc1ccc(F)cc1F | inactive: 4.1% | –
